# Data from the supplement of paper PMC8728848.
# This is one part of the list.
# B1: DGL (Dioclea grandiflora), P08902 (protein)
# chain: ADTIVAVELDSYPNTDIGDPNYPHIGIDIKSIRSKSTARWNMQTGKVGTVHISYNSVAKRLSAVVSYSGSSSTTVSYDVDLNNVLPEWVRVGLSATTGLYKETNTILSWSFTSKLKTNSIADENSLHFSFHKFSQNPKDLILQGDAFTDSDGNLELTKVSSSGDPQGNSVGRALFYAPVHIWESSAVVASFDATFTFLIKSPDREPADGITFFIANTDTSIPSGSGGRLLGLFPDAN
# How the values were obtained:
# Assay in all cases: glycan array binding signal (z-score within array); higher = stronger binding
# Conditions in all cases: glycan notation: IUPAC condensed, linker removed
# [1] = molecular target: Fuc(a1-2)[Gal(a1-3)]Gal(b1-4)GlcNAc(b1-2)Man(a1-3)[Fuc(a1-2)[Gal(a1-3)]Gal(b1-4)GlcNAc(b1-2)Man(a1-6)]Man(b1-4)GlcNAc(b1-4)GlcNAc
# Outline: (§1)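 The binding signal is a Z-score computed within each array and averaged over linkers. Arrays of the same protein sequence at different concentrations or buffers were also averaged together. Data originate from 3228 arrays in the Consortium for Functional Glycomics database, kept only where the protein sequence was available.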
# [2] = molecular target: Fuc(a1-2)[Gal(a1-3)]Gal(b1-4)[Fuc(a1-3)]GlcNAc
# Outline: as §1
# [3] = molecular target: Fuc(a1-2)[Gal(a1-4)]Gal(b1-4)GlcNAc
# Outline: as §1
# [4] = molecular target: Fuc(a1-2)[GalNAc(a1-3)]Gal
# Outline: as §1
# [5] = molecular target: Fuc(a1-2)[GalNAc(a1-3)]Gal(b1-3)GlcNAc
# Outline: as §1
# [6] = molecular target: Fuc(a1-2)[GalNAc(a1-3)]Gal(b1-3)GlcNAc(b1-2)Man(a1-3)[Fuc(a1-2)[GalNAc(a1-3)]Gal(b1-3)GlcNAc(b1-2)Man(a1-6)]Man(b1-4)GlcNAc(b1-4)GlcNAc
# Outline: as §1
# [7] = molecular target: Fuc(a1-2)[GalNAc(a1-3)]Gal(b1-4)Glc
# Outline: as §1
# [8] = molecular target: Fuc(a1-2)[GalNAc(a1-3)]Gal(b1-4)GlcNAc
# Outline: as §1
# [9] = molecular target: Fuc(a1-2)[GalNAc(a1-3)]Gal(b1-4)GlcNAc(b1-2)Man(a1-3)[GalNAc(a1-3)[Fuc(a1-2)]Gal(b1-4)GlcNAc(b1-2)Man(a1-6)]Man(b1-4)GlcNAc(b1-4)GlcNAc
# Outline: as §1
# [10] = molecular target: Fuc(a1-2)[GalNAc(a1-3)]Gal(b1-4)GlcNAc(b1-3)Gal(b1-4)GlcNAc
# Outline: as §1
# [11] = molecular target: Fuc(a1-2)[GalNAc(a1-3)]Gal(b1-4)GlcNAc(b1-3)Gal(b1-4)GlcNAc(b1-3)Gal(b1-4)GlcNAc
# Outline: as §1
# [12] = molecular target: Fuc(a1-2)[GalNAc(a1-3)]Gal(b1-4)[Fuc(a1-3)]GlcNAc
# Outline: as §1
# [13] = molecular target: Fuc(a1-2)[GalNAc(a1-4)]Gal(b1-4)GlcNAc
# Outline: as §1
# [14] = molecular target: Fuc(a1-2)[GalNAc(b1-3)]Gal
# Outline: as §1
# Fuc(a1-3)GlcNAc = molecular target: Fuc(a1-3)GlcNAc
# Outline: as §1
# [15] = molecular target: Fuc(a1-3)[Gal(b1-4)]Glc6S
# Outline: as §1
# [16] = molecular target: Fuc(a1-3)[Gal(b1-4)]GlcNAc
# Outline: as §1
# [17] = molecular target: Fuc(a1-3)[Gal(b1-4)]GlcNAc(b1-2)Man(a1-3)[Fuc(a1-3)[Gal(b1-4)]GlcNAc(b1-2)Man(a1-6)]Man(b1-4)GlcNAc(b1-4)GlcNAc
# Outline: as §1
# [18] = molecular target: Fuc(a1-3)[Gal(b1-4)]GlcNAc(b1-2)Man(a1-6)[Gal(b1-4)GlcNAc(b1-2)Man(a1-3)]Man(b1-4)GlcNAc(b1-4)GlcNAc
# Outline: as §1
# [19] = molecular target: Fuc(a1-3)[Gal(b1-4)]GlcNAc(b1-3)Gal(b1-3)[Fuc(a1-4)]GlcNAc
# Outline: as §1
# [20] = molecular target: Fuc(a1-3)[Gal(b1-4)]GlcNAc(b1-4)Gal(b1-4)[Fuc(a1-3)]GlcNAc
# Outline: as §1
# [21] = molecular target: Fuc(a1-3)[Gal(b1-4)]GlcNAc(b1-4)Gal(b1-4)[Fuc(a1-3)]GlcNAc(b1-4)Gal(b1-4)[Fuc(a1-3)]GlcNAc
# Outline: as §1
# [22] = molecular target: Fuc(a1-3)[Gal(b1-4)]GlcNAc6S
# Outline: as §1
# [23] = molecular target: Fuc(a1-3)[Gal3S(b1-4)]Glc6S
# Outline: as §1
# [24] = molecular target: Fuc(a1-3)[Gal3S(b1-4)]GlcNAc
# Outline: as §1
# [25] = molecular target: Fuc(a1-3)[Gal3S(b1-4)]GlcNAc6S
# Outline: as §1
# [26] = molecular target: Fuc(a1-3)[GalNAc(b1-4)]GlcNAc
# Outline: as §1
# [27] = molecular target: Fuc(a1-3)[Neu5Ac(a2-3)]Gal(b1-4)GlcNAc(b1-3)GalNAc
# Outline: as §1
# Fuc(a1-4)GlcNAc = molecular target: Fuc(a1-4)GlcNAc
# Outline: as §1
# Fuc(b1-3)GlcNAc = molecular target: Fuc(b1-3)GlcNAc
# Outline: as §1
# Gal(a1-2)Gal = molecular target: Gal(a1-2)Gal
# Outline: as §1
# Gal(a1-3)Gal = molecular target: Gal(a1-3)Gal
# Outline: as §1
# Gal(a1-3)Gal(b1-3)GlcNAc = molecular target: Gal(a1-3)Gal(b1-3)GlcNAc
# Outline: as §1
# Gal(a1-3)Gal(b1-4)Glc = molecular target: Gal(a1-3)Gal(b1-4)Glc
# Outline: as §1
# Gal(a1-3)Gal(b1-4)GlcNAc = molecular target: Gal(a1-3)Gal(b1-4)GlcNAc
# Outline: as §1
# [28] = molecular target: Gal(a1-3)Gal(b1-4)[Fuc(a1-3)]GlcNAc
# Outline: as §1
# [29] = molecular target: Gal(a1-3)Gal(b1-4)[Fuc(a1-3)]GlcNAc(b1-2)Man(a1-3)[Gal(a1-3)Gal(b1-4)[Fuc(a1-3)]GlcNAc(b1-2)Man(a1-6)]Man(b1-4)GlcNAc(b1-4)GlcNAc
# Outline: as §1
# Gal(a1-3)GalNAc = molecular target: Gal(a1-3)GalNAc
# Outline: as §1
# [30] = molecular target: Gal(a1-3)[Gal(a1-4)]Gal(b1-4)GlcNAc
# Outline: as §1
# Gal(a1-4)Gal(b1-4)Glc = molecular target: Gal(a1-4)Gal(b1-4)Glc
# Outline: as §1
# Gal(a1-4)Gal(b1-4)GlcNAc = molecular target: Gal(a1-4)Gal(b1-4)GlcNAc
# Outline: as §1
# [31] = molecular target: Gal(a1-4)Gal(b1-4)GlcNAc(b1-3)Gal(b1-4)Glc
# Outline: as §1
# Gal(a1-4)GlcNAc = molecular target: Gal(a1-4)GlcNAc
# Outline: as §1
# Gal(a1-6)Glc = molecular target: Gal(a1-6)Glc
# Outline: as §1
# Gal(b1-2)Gal = molecular target: Gal(b1-2)Gal
# Outline: as §1
binder,measurement,setting,value
B1,glycan array binding signal (z-score),[1],-0.17
same,glycan array binding signal (z-score),[2],-0.184
same,glycan array binding signal (z-score),[3],-0.182
same,glycan array binding signal (z-score),[4],-0.179
same,glycan array binding signal (z-score),[5],-0.164
same,glycan array binding signal (z-score),[6],-0.173
same,glycan array binding signal (z-score),[7],-0.174
same,glycan array binding signal (z-score),[8],-0.183
same,glycan array binding signal (z-score),[9],-0.184
same,glycan array binding signal (z-score),[10],-0.174
same,glycan array binding signal (z-score),[11],-0.174
same,glycan array binding signal (z-score),[12],-0.172
same,glycan array binding signal (z-score),[13],-0.174
same,glycan array binding signal (z-score),[14],-0.18
same,glycan array binding signal (z-score),Fuc(a1-3)GlcNAc,-0.177
same,glycan array binding signal (z-score),[15],-0.184
same,glycan array binding signal (z-score),[16],-0.162
same,glycan array binding signal (z-score),[17],-0.178
same,glycan array binding signal (z-score),[18],-0.184
same,glycan array binding signal (z-score),[19],-0.182
same,glycan array binding signal (z-score),[20],-0.181
same,glycan array binding signal (z-score),[21],-0.182
same,glycan array binding signal (z-score),[22],-0.172
same,glycan array binding signal (z-score),[23],-0.182
same,glycan array binding signal (z-score),[24],-0.174
same,glycan array binding signal (z-score),[25],-0.169
same,glycan array binding signal (z-score),[26],-0.177
same,glycan array binding signal (z-score),[27],-0.072
same,glycan array binding signal (z-score),Fuc(a1-4)GlcNAc,-0.175
same,glycan array binding signal (z-score),Fuc(b1-3)GlcNAc,-0.178
same,glycan array binding signal (z-score),Gal(a1-2)Gal,-0.184
same,glycan array binding signal (z-score),Gal(a1-3)Gal,-0.18
same,glycan array binding signal (z-score),Gal(a1-3)Gal(b1-3)GlcNAc,-0.171
same,glycan array binding signal (z-score),Gal(a1-3)Gal(b1-4)Glc,-0.181
same,glycan array binding signal (z-score),Gal(a1-3)Gal(b1-4)GlcNAc,-0.182
same,glycan array binding signal (z-score),[28],-0.176
same,glycan array binding signal (z-score),[29],-0.175
same,glycan array binding signal (z-score),Gal(a1-3)GalNAc,-0.173
same,glycan array binding signal (z-score),[30],-0.176
same,glycan array binding signal (z-score),Gal(a1-4)Gal(b1-4)Glc,-0.164
same,glycan array binding signal (z-score),Gal(a1-4)Gal(b1-4)GlcNAc,-0.174
same,glycan array binding signal (z-score),[31],-0.163
same,glycan array binding signal (z-score),Gal(a1-4)GlcNAc,-0.178
same,glycan array binding signal (z-score),Gal(a1-6)Glc,-0.182
same,glycan array binding signal (z-score),Gal(b1-2)Gal,-0.176
